PubChem BioAssay (NCATS)
Inconclusive results, whose numbers are uncertain, are shown with a selection of clear calls. No potency is given beside an inconclusive call; the fits are too rough. Activity calls are given as the source filed them. The call rests on the fitted dose curve; in most records, active means well fitted inhibition curve with a large enough effect; inconclusive means small, poorly fitted or top-dose-only effect; inactive means no such curve, though single readings can be large or run the other way.
On the % scale 0 is the no-effect control and ±100 the full control effect; potency means the concentration at half of the fitted maximal effect; tags describe the fitted curve by direction and shape.

These molecules were tested against Glutaminase kidney isoform, mitochondrial (Homo sapiens) (UniProt O94925) (assay: qHTS for Inhibitors of Glutaminase (GLS): LOPAC Validation (AID 624146; further: nearly all actives have a fitted effect of over 60% in size;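 on activity change, negative = inhibition: glutamate product detected by oxidase and peroxidase coupled Amplex red fluorescence gain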)). Details: glutaminase enzyme activity inhibition; series mostly up to 46.1 µM; activity change, negative = inhibition: at the top concentration.
Sequence of UniProt O94925 (O94925 whole entry, looked up, canonical isoform): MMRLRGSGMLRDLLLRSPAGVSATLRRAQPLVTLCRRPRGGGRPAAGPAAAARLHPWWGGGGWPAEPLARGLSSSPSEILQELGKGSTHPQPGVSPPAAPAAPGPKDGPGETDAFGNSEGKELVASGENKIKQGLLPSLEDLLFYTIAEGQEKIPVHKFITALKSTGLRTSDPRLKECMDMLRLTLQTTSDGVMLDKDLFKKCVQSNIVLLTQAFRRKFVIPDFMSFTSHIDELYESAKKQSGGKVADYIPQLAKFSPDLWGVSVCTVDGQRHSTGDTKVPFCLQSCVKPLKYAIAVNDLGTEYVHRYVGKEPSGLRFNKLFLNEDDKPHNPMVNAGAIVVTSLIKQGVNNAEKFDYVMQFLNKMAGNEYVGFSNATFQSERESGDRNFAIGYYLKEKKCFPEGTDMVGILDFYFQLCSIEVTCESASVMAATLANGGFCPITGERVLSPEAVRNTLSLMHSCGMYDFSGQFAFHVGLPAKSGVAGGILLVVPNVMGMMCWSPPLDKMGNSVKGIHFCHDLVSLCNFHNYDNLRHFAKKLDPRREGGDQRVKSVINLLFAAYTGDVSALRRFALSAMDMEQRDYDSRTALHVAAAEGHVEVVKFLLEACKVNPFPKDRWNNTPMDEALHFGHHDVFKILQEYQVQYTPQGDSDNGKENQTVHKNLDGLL
How it was run: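 Coupled fluorescence readout: glutamate oxidase/HRP/Amplex Red detect glutamate formed by hKGA from L-glutamine (1 mM solution added). Buffer 45 mM KH2PO4 pH 8.2, 0.02% Tween-20; reads at t0 and 30 min RT.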
For `CCc1c(C)[nH]c2c1C(=O)C(CN1CCOCC1)CC2` (centres undefined), the Potency was inconclusive [inhibitor, partial curve, poor fit]. For `CNCCC(Oc1ccccc1OC)c1ccccc1` (centres undefined), the “activity change, negative = inhibition” value was inactive: -0.148%. In the case of `CC(C)C[C@H]1C(=O)N2CCC[C@H]2[C@]2(O)O[C@](NC(=O)[C@@H]3C=C4c5cccc6[nH]c(Br)c(c56)C[C@H]4N(C)C3)(C(C)C)C(=O)N12`, the Potency is reported as inconclusive [inhibitor, partial curve, poor fit]. For `c1cnc(N2CCN(Cc3ccc4c(c3)OCO4)CC2)nc1`, the Potency was inconclusive [inhibitor, full curve, poor fit]. With `O=C(c1ccc(OCCN2CCCCC2)cc1)c1c(-c2ccc(O)cc2)sc2cc(O)ccc12` the Potency was active: 2.82 µM. With `CC#C[C@]1(O)CC[C@H]2[C@@H]3CCC4=CC(=O)CCC4=C3[C@@H](c3ccc(N(C)C)cc3)C[C@@]21C` the Potency was inconclusive [inhibitor, partial curve]. In the case of `NC(=O)NO`, the Potency is reported as active: 8.91 µM. With `COc1cc2c(cc1OC)-c1cc(=Nc3c(C)cc(C)cc3C)n(C)c(=O)n1CC2` the “activity change, negative = inhibition” value was inactive: -28.1%. With `CC(C(O)c1ccc(O)cc1)N1CCC(Cc2ccccc2)CC1` (centres undefined) the “activity change, negative = inhibition” value was inactive: 13.5%. With `NNCCc1ccccc1` the Potency was inconclusive [inhibitor, partial curve, poor fit]. With `CC(CN1c2ccccc2Sc2ccccc21)N(C)C` (centres undefined) the Potency was inconclusive [inhibitor, partial curve, poor fit]. With `CCC(=O)c1ccc2c(c1)N(CCCN(C)C)c1ccccc1S2` the Potency was inconclusive [inhibitor, partial curve, poor fit]. In the case of `Nc1nc(N)c2nc(CNc3ccc(C(=O)NC(CCC(=O)O)C(=O)O)cc3)cnc2n1` (centres undefined), the “activity change, negative = inhibition” value is reported as inactive: -12.9%. For `C[n+]1cc2c3c(ccc2c2ccc4cc5c(cc4c21)OCO5)OCO3`, the Potency was inconclusive [inhibitor, full curve, poor fit]. In the case of `COc1cc2ncnc(Nc3cccc(Cl)c3)c2cc1OC`, the “activity change, negative = inhibition” value is reported as inactive: -8.72%. With `CCN(Cc1ccncc1)C(=O)C(CO)c1ccccc1` (centres undefined) the “activity change, negative = inhibition” value was inactive: -7.44%. For `COc1cc(NS(C)(=O)=O)ccc1Nc1c2ccccc2nc2ccccc12`, the Potency was active: 1 µM. With `NC(=O)N1c2ccccc2C=Cc2ccccc21` the “activity change, negative = inhibition” value was inactive: -3.27%. In the case of `CCN1CCc2nc(N)oc2CC1`, the Potency is reported as inconclusive [inhibitor, partial curve]. In the case of `CC1=C(/C=C/C(C)=C/C=C/C(C)=C/C(=O)O)C(C)(C)CCC1`, the Potency is reported as inconclusive [inhibitor, full curve]. With `OCCN1CCN(CCCN2c3ccccc3Sc3ccc(Cl)cc32)CC1` the Potency was inconclusive [inhibitor, single point]. In the case of `CC(C[N+](C)(C)C)OC(N)=O` (centres undefined), the “activity change, negative = inhibition” value is reported as inactive: -5.71%. In the case of `CSc1ccc2c(c1)N(CCC1CCCCN1C)c1ccccc1S2` (centres undefined), the Potency is reported as inconclusive [inhibitor, partial curve, poor fit]. With `OCc1ccc(-c2nn(Cc3ccccc3)c3ccccc23)o1` the “activity change, negative = inhibition” value was inactive: 3.74%.
